Results: the supplement of paper PMC11417369
The other results are listed elsewhere or left out.

What follows are sequences tested on PF3D7_0420300 AP2 domain 1 (GST-tagged) (assay: gcPBM binding intensity (ln(normalized median fluorescence intensity)); higher = stronger DNA binding).
How it was run: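 GST-fused DNA-binding domains of P. falciparum, expressed in E. coli, were applied at about 25 μg on average for 1 h to an Agilent 4 × 180k array of primer-extended double-stranded 36-bp intergenic genomic probes and negative controls. Binding intensity is the highest Masliner-normalised natural-log median intensity across replicate spots of either probe orientation, measured with Alexa488 anti-GST antibody and a 488 nm scan.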

Row | Sequence | gcPBM binding intensity (ln)
1 | TTTTTTTCGTAAAAAAAAATAATTATTAAATGAAGG [TGCATGCA_negctrl_site212] | 8.66
2 | GTAAATATTAATAAAAGTACATATGTAGCATATGGA [XGTACX_site5219] | 9.33
3 | CCTTTTTTATTTACAACACACGTAAAGGTTCAAATA [CACACA_site1741] | 9.24
4 | ATATATATATATATGTGTACATATTTTTTTTTTTTT [XGTACX_site3425] | 9.15
5 | AGAAAAAAAAAAAATGCACACATTTTCATTGTCAGT [CACACA_site1935] | 9.28
6 | AAAAAACACAGACATACACACAAAAAGGTTATAAAT [CACACA_site4222] | 10.1
7 | TTAAACATATATTAAGCACACACAAACAAAAAAACA [CACACA_site8816] | 9.9
8 | AACATATTTTTTTGTTGTACTTACAATTATAAGCAT [XGTACX_site3056] | 9.21
9 | TATACCAAATATATGGGTACACAAATATGTTTATTC [XGTACX_site8932] | 9.24
10 | TAATTAATCGATTTACGCACATGAACAAAAGCACAT [CACACA_negctrl_site1287] | 9.39
11 | TATAAAGCAACTGAAACACACAAATTTTTTTTTTTT [CACACA_site3218] | 9.31
12 | ACTATTTTCTTCAAAACATGCACCACATAAACATAA [TGCATGCA_site200] | 9.18
13 | ATTATTTATTTATGTGTGCGCATGTGTGTAAATATT | 9.93
14 | TTAAAATTAAAAATAGGTACACATATGAACAAGGAC [XGTACX_site1180] | 9.81
15 | TTATATGATATATGACGTACATATTAATAACATCTA [XGTACX_site6716] | 9.14
16 | TGTAATATTTTATAAAGTACATTATAATATAATTCA [XGTACX_site2961] | 9
17 | TTTTTTTCTATAATACACCAGAAAAAAAAATTAAAA [TGCATGCA_negctrl_site257] | 8.66
18 | TTGTTCCAATAAAATCGTACAATTAAACAACCAAAC [XGTACX_site5759] | 9.45
19 | CAATCAACAAAACATACACACACATATATATATATA [CACACA_site8979] | 9.74

Row | Sequence | gcPBM binding intensity (ln)
20 | AGATTGAAATATAGTTGTACAAATATTTTAAAACAT [XGTACX_site3026] | 9.25
21 | CATATCTCTTATTAATGTACATTTTTAAAAGTAAAT [XGTACX_site2847] | 8.98
22 | CTTTTTTTTATGAACAGTACAGAAATATATATATAC [XGTACX_site5613] | 9.11
23 | TTTATATAATGGAAAAGTACTCAGGAAATTTATACA [XGTACX_site3635] | 9.16
24 | CAAGAACAAAAAATATGTACATATAATTATATATAT [XGTACX_site2082] | 9.47
25 | TATCCTACATTAACAAGTACAAAGAGATCCTACGTA [XGTACX_site4252] | 9.03
26 | AAGAATATATAGGACACACATACAATAATAAATATA [CACACA_site4119] | 9.74
27 | AACGCCACTTCAATGGCACACACCAATTATTTTTCA [CACACA_site1026] | 9.35
28 | TTTCTCCATATTAAAGTGCATTAATAACAAAAATAA [GTGCAC_site9934] | 8.87
29 | AAAAAAAAAAAAAATATACACACTAATATATTTTTT [CACACA_site815] | 9.33
30 | ATATATATATTAATTACACACAAAAAAAAAAAAAAA [CACACA_site1165] | 9.51
31 | TCATTCGAATAAATTGCACACATGACATCCGTTGTA [CACACA_site2587] | 9.37
32 | TATATACAGATATATACACACATATTTATATTTTAT [CACACA_site7734] | 9.48
33 | GTATAGAGAAAAAACTGTACTTTATATAAATATTTA [XGTACX_site3972] | 9.06
34 | TATTAATAATATAATAGTACTTTCACTGTAAATTTA [XGTACX_site6419] | 9.08
35 | TAATTTATAAATAATTGTACATAGTTTATTTAGATT [XGTACX_site4599] | 9.09
36 | TAATTATAAAAATAAAACAACCAAATTTGTTATATA [CACACA_negctrl_site750] | 9.19
37 | ATATATATAAAATAAAGTACCCGTAAAACCTATATG [XGTACX_site6937] | 9.54
38 | AAAAAAAAAAAAAAAAAATAATAAAAAATAAAAAAA [GTGCAC_negctrl_site341] | 9.18

Row | Sequence | gcPBM binding intensity (ln)
39 | TATGTTAATCCTATTTGTACATATAATCGAATTAAA [XGTACX_site7090] | 8.88
40 | GACGACTATATTAATTGTACTCAATTTAAGCATAAT [XGTACX_site2750] | 9.16
41 | GAAAGGAAAAGTTGAACACACAAAGTAAACTATAAG [CACACA_site3535] | 9.54
42 | ATATATAATAATATATGTACATAATATTTTTTTTTT [XGTACX_site1941] | 8.99
43 | TAATGAAGATATATAACACACAAAAGTTATAAATAT [CACACA_site6678] | 9.61
44 | GCCATTAATTTATACACACACATTAAAATTTTTTAT [CACACA_site4575] | 9.78
45 | GCTATAAATACAGACGCACACATATACATACATATA [CACACA_site3329] | 9.59
46 | TACAAAATAGTTTACACACACATATATATACATATA [CACACA_site2615] | 9.82
47 | TTTATTTTTATGGTCACACATATTTTTAAAACTATA [CACACA_site4372] | 9.29
48 | TTTTTTTTTTTATATACTGGAAATATATTTAATTTA [GTGCAC_negctrl_site250] | 9.01
49 | CACCCATAGAAACACACACACGCATAAAAAAAAAAA [CACACA_site1513] | 9.71
50 | TAAAAACAAAAATGCACACATAATAAGCATATGTAT [CACACA_site3469] | 9.55
51 | TATTCTAATATTTATACACACATAACTTTGATAAAT [CACACA_site6418] | 9.42
52 | ATTAATTATTGTAATTGTACATTTTATATATATCCA [XGTACX_site2105] | 9.26
53 | TTTCTTGGGAGACATGCATGTACCAGAACAAAATAA [TGCATGCA_site272] | 9.24
54 | TATATATAGCATATTTCACACACACCGAATGAATAT [CACACA_site9182] | 9.83
55 | TTATCCTTGTAACAATGTACACATTATTTAATACTT [XGTACX_site1830] | 9.29
56 | GCATAAACGGATAATTAATTATATTATATTATATCA [CACACA_negctrl_site1519] | 9.08
